# Laboratory results reported in the supplement of paper PMC12217912.
# Some of the results follow. The full chains were built here from the parent and the listed change. Inactive controls read about 0.05.
# B1: TEV protease; numbered along this chain (parent)
# chain: MGESLFKGPRDYNPISSSICHLTNESDGHTTSLYGIGFGPFIITNKHLFRRNNGTLVVQSLHGVFKVKDTTTLQQHLVDGRDMIIIRMPKDFPPFPQKLKFREPQREERICLVTTNFQTKSMSSMVSDTSCTFPSGDGIFWKHWIQTKDGQCGSPLVSTRDGFIVGIHSASNFTNTNNYFTSVPKNFMELLTNQEAQQWVSGWRLNADSVLWGGHKVFMVKPEEPFQPVKEATQL
# Variants of: B1
# Test: raw area under fraction-flipped curve 0-4 h after induction (AUC4h, not background-subtracted), DNA-recorder readout of cleavage of the substrate (dimensionless); higher = more cleavage of the substrate by the protease variant
# Settings: temperature: 34 °C; time window: 0-4 h after rhamnose induction
# 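Further: Bxb1 expression induced with 0.2% (w/v) L-rhamnose at OD600 near 0.5, cultures sampled hourly, flipped fraction per protease–substrate barcode pair counted by paired-end Illumina sequencing.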
Variant,area with substrate ENDYFQS,area with substrate ENEYFQS,area with substrate ENGYFQS,area with substrate ENHYFQS,area with substrate ENQYFQS,area with substrate ENSYFQS,area with substrate ENVYFQS,area with substrate ENFYFQS,area with substrate ENKYFQS,area with substrate ENPYFQS,area with substrate ENRYFQS,area with substrate ENTYFQS,area with substrate ENWYFQS,area with substrate ENIYFQS,area with substrate ENMYFQS,area with substrate ENNYFQS,area with substrate ENYYFQS
V217A,0.0717,0.0581,0.0588,0.0513,0.0503,0.0547,0.0604,–,–,–,–,–,–,–,–,–,–
F163V,0.0631,0.0644,–,–,0.0724,0.0538,–,0.0787,0.0653,0.0652,0.0616,0.0719,–,–,–,–,–
T233K,0.0526,0.0626,0.0526,0.0537,0.0574,0.0619,0.0856,0.0696,0.0572,–,0.073,0.0655,0.0658,–,–,–,–
R50D,–,0.0648,0.0653,–,0.0533,0.0598,0.0704,–,–,–,0.0425,–,–,0.0866,0.0723,0.0612,–
E231H,0.065,0.062,0.08,–,0.0577,0.0504,0.0709,0.0389,0.0624,–,–,0.073,–,–,–,0.0597,0.0461
E107A,–,0.0768,0.0411,0.0567,0.0593,0.0571,0.0706,0.0725,–,0.0483,0.0732,0.0658,0.0768,–,–,0.0592,–
